# Measured values taken from the supplement of paper PMC3334620.
# Whole data set: some 33,000 sequences, median “E-score (-0.5 to 0.5)” near -0.032, cut for the highest 2% near 0.36. The list shows a part of the results.
# Biological target: T1, Sko1 (UniProt Q02100)
# T1 sequence: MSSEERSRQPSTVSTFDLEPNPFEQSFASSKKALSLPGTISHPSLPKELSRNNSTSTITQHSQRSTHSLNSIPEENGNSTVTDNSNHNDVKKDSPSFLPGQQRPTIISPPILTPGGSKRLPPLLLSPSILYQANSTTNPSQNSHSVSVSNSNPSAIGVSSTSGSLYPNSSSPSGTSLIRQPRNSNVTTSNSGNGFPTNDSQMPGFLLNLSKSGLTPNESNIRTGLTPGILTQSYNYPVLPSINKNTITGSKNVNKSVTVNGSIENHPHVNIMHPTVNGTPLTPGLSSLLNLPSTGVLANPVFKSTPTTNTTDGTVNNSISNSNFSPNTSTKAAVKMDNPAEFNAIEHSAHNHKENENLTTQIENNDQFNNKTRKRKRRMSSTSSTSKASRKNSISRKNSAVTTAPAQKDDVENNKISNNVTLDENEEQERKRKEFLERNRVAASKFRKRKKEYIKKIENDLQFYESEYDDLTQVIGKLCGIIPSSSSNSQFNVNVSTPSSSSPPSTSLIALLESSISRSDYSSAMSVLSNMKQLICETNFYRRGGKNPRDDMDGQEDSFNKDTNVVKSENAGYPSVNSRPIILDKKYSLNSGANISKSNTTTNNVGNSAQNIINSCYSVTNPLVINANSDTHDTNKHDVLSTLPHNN
# Experiment: PBM E-score (8-mer binding enrichment) (E-score (-0.5 to 0.5)); higher = stronger / more preferred TF binding; most listed sequences are background and not binding sites
# Conditions: protein concentration: 200 nM; construct: GST-full length
# Method in brief: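 GST-tagged yeast TFs (full-length or DNA-binding domain) were made by PURExpress in vitro transcription/translation and applied at about 100-200 nM to universal all-10-mer Agilent arrays. The arrays were made double-stranded by primer extension, on fresh or once-stripped slides. Bound protein was detected with fluorescent anti-GST, and scans were normalised with masliner. Each ungapped eight-base word, pooled with its reverse complement, received an E-score (modified Wilcoxon-Mann-Whitney statistic) from the Universal PBM Analysis Suite.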
row,Sequence,PBM E-score
1,ATGGGCCA,-0.106
2,CAGTCCAA,-0.273
3,ACACGAGA,-0.0015
4,ACCGAAAG,-0.0787
5,AGACAGCA,-0.175
6,CATACTCG,0.074
7,TACTACAA,0.233
8,AAGTGTTA,-0.023
9,ACATAAAC,0.291
10,AGCGGACA,-0.249
11,AATAAACC,0.0579
12,TCGCCAGA,-0.123
13,ATTAACGC,0.12
14,CTACTCGA,0.00452
15,TCACCGAA,0.0652
16,AATTAGCA,0.0703
17,ACGTGATA,0.409
18,AAAAAAGA,0.0782
19,AACTCGGT,-0.00192
20,AATGAAAT,0.281
21,GCTCTACC,-0.222
22,AAAAAGAA,0.0522

row,Sequence,PBM E-score
1,AGTATCCC,-0.257
2,AACATTGT,0.105
3,TCTCTGAA,-0.0916
4,AATTACGG,0.26
5,ATAGAATC,0.0227
6,ACATGATG,0.177
7,GTTTTTAA,0.206
8,AACCCATA,0.00986
9,ACCGTCGG,-0.164
10,ATCGCCGG,-0.118
11,ACCCCTCG,-0.159
12,GCTCCACC,-0.282
13,AGCTCAAC,-0.147
14,AGTGACTG,-0.0295
15,AGTGCTGC,0.00774
16,CAGTTATC,-0.163
17,AAACTCTA,0.0457
18,CAGGTTAA,-0.057
19,CTATGAGA,-0.111
20,AAAATCTA,0.123
21,ATGATGGC,0.0223
22,AGCTACAA,-0.122

row,Sequence,PBM E-score
1,ACGAGAGA,-0.0589
2,AAAATAGA,0.104
3,ATTCAGTC,0.0357
4,AAATCACA,0.0912
5,AGCGGCCA,-0.209
6,CGATCCCC,-0.258
7,GATGCTAC,0.0613
8,CCCGTGCC,-0.178
9,GAGACTCC,-0.111
10,CGCTGTCC,-0.0275
11,CAAAAGTG,0.0902
12,AGGAGAGA,-0.0928
13,GTCAAGTA,0.0739
14,CGAAAGTC,0.11
15,AAAGAGTG,-0.0846
16,CACTGCGC,-0.0359
17,GTCCACTA,-0.0871
18,AGTAAAAG,0.181
19,AACCCAGG,-0.122
20,ATTGCGAA,0.175
21,AGTCGGTA,-0.174
22,ACTCTACC,-0.137

row,Sequence,PBM E-score
1,TGGAAGAA,0.0802
2,ATCATGCC,0.131
3,GGTGGTAA,0.0085
4,ATAATTAG,0.202
5,ACCATGTG,0.0252
6,TCCCATCA,-0.0921
7,AAAGCGTC,0.0125
8,GCGTGGAA,-0.0652
9,GTACAAAC,0.12
10,TATGGTAA,0.11
11,GGCATGTA,0.0852
12,GTAAGAAA,0.0895
13,CATCCACC,-0.166
14,CCAGACCG,-0.276
15,AACGAGTC,-0.0563
16,AGCATTGG,-0.217
17,AGCCTCGC,-0.154
18,CATAACCA,0.0546
19,GTGAGTCA,0.235
20,ATTAGTGA,0.042
21,AGCCCGGC,-0.272
22,AAAGTACT,-0.0356

row,Sequence,PBM E-score
1,CCCACAGC,-0.124
2,GCGGAATA,0.0622
3,GCATGAAC,-0.065
4,CGGCGTTC,-0.128
5,ATTGATAA,0.161
6,CCTAGTAG,-0.158
7,CCCGACGA,-0.112
8,CCTGGTAA,-0.124
9,ACCATCGT,-0.0577
10,CAGATGGG,-0.259
11,CAAGACGG,-0.218
12,ACCGAATA,0.161
13,GTCCCGGA,-0.143
14,CACCATGC,-0.219
15,AGCACAAA,0.0706
16,GAGTTTTA,0.0454
17,CCCCTTAA,-0.253
18,TCTCGGCA,-0.169
19,ACACATAA,0.262
20,GCACGCAC,0.0723
21,TCACGCGA,0.237
